Experimental data from ChEMBL document CHEMBL4888484, “Replenishing the malaria drug discovery pipeline: Screening and hit evaluation of the MMV Hit Generation Library 1 (HGL1) against asexual blood stage Plasmodium falciparum ,using a nano luciferase reporter read-out” (2022).
Out of some 150,000 compounds screened, about 540 (0.36%) showed an effect of 50% or more. The list shows a part of the results.

What follows are compounds tested on Plasmodium falciparum (assay: Primary screen in NF54 nanoGlo assay, in single point, at 2uM, 72h; a lower Z score goes with more inhibition). Conditions: timepoint 72 hour.
Assay type: functional, Erythrocyte
In the case of `CC1CC(NS(=O)(=O)CCC2CCCO2)CN1c1ccccc1` (centres undefined), the “% Inhibition” value is reported as -3% and the Z score is reported as 0.56. With `Cc1ccc(S(=O)(=O)N2CCN(C(=O)NCCc3cn[nH]c3)CC2)cc1` the “% Inhibition” value was -5% and the Z score was 0.63. `c1ccc(-n2cc(-c3noc(-c4ccc5ccccc5n4)n3)nn2)cc1` was tested, and the “% Inhibition” value was -19% and the Z score was 3.68. `Cc1cc(C(=O)N(C)CC[C@H](N)C(C)C)n(C)n1` was tested, and the “% Inhibition” value was -21% and the Z score was 2.68. With `Cc1cccc(N[C@@H](C)C(=O)NC(C)(C)C)c1` the “% Inhibition” value was -8% and the Z score was 1.39. In the case of `CCN(CC)S(=O)(=O)CCNC(=O)[C@@H](c1cc(Cl)cc(Cl)c1)N(C)C`, the “% Inhibition” value is reported as -1% and the Z score is reported as 0.19. With `CCCn1nnc2cc(S(=O)(=O)N3CCCC[C@H]3C(=O)NCCCN3CCOCC3)ccc21` the “% Inhibition” value was -21% and the Z score was 1.83. With `O=C1CN(c2ccccc2NC(=O)c2ccc[nH]c2=O)CCN1` the “% Inhibition” value was -15% and the Z score was 2.14. In the case of `COc1ccc(/C=C/CN2CCC[C@H](CNC(=O)c3ccoc3)C2)cc1`, the “% Inhibition” value is reported as -2% and the Z score is reported as 0.32. With `CCN(CCNC(=O)c1nn(CC)c2c1COCC2)c1ccccc1` the “% Inhibition” value was 3% and the Z score was -0.41. In the case of `CCc1ccccc1NC(=O)CN1C(=O)CCn2nc(-c3cn(C)c4ccccc34)cc21`, the “% Inhibition” value is reported as 1% and the Z score is reported as -0.23. `COCCN(Cc1ccnn1C)C(=O)C1COC(C)C1` (centres undefined) was tested, and the “% Inhibition” value was -7% and the Z score was 0.7. For `CCc1nc(C)c(C(=O)N(Cc2ccco2)C[C@H]2CCCO2)o1`, the “% Inhibition” value was -6% and the Z score was 0.57. For `Cc1n[nH]c(C)c1[C@@H](N)C(=O)NCCc1c[nH]c2ccccc12`, the “% Inhibition” value was -2% and the Z score was 0.39. With `COc1ccc(C(=O)N2CCc3ccc(C(=O)NCc4cccnc4)cc32)cc1` the “% Inhibition” value was -10% and the Z score was 1.19. With `O=C(CN1N=C(c2ccccc2)c2ccccc2S1(=O)=O)NCc1ccc2c(c1)OCO2` the “% Inhibition” value was -2% and the Z score was 0.28. With `CCC1(CNC(=O)Nc2csnc2C)CC1` the “% Inhibition” value was -18% and the Z score was 2.36. In the case of `Cc1ccc(CS(=O)(=O)N2CC[C@H](c3cc(C)ccn3)C2)cc1`, the “% Inhibition” value is reported as -1% and the Z score is reported as 0.18. In the case of `Cc1ncsc1C(=O)NC1CCN(C(=O)c2ccc(O)c(Cl)c2)CC1`, the “% Inhibition” value is reported as -4% and the Z score is reported as 0.33. For `Cc1cc(CNCCC(=O)N2CCCC2)ccc1Br`, the “% Inhibition” value was -3% and the Z score was 0.25. `O=C(C[C@H]1CCN(S(=O)(=O)c2ccc(F)cc2F)C1)NCc1ccccc1` was tested, and the “% Inhibition” value was 45% and the Z score was -6.54. In the case of `CCC[C@H]1CN(c2nccc(C(F)(F)F)n2)C[C@@H]1N`, the “% Inhibition” value is reported as -7% and the Z score is reported as 1.25. For `Cc1cc(CN2Cc3nc(C4CC4)nc(O)c3C2)on1`, the “% Inhibition” value was 2% and the Z score was -0.32. With `COc1ccc(CN2C(=O)COC[C@H]2C(=O)NCc2cccc(F)c2)cc1OC` the “% Inhibition” value was -10% and the Z score was 1.16. `CC(C)n1cc(CN2CC[C@]3(O)CCN(C(=O)C4CCC4)C[C@@H]3C2)cn1` was tested, and the “% Inhibition” value was -3% and the Z score was 0.38. In the case of `Cc1ccncc1NC(=O)C[C@H]1COCCN1Cc1coc(-c2ccccc2)n1`, the “% Inhibition” value is reported as -9% and the Z score is reported as 0.89. For `CCN(CCNC(=O)Nc1cn(CC(C)C)c(=O)c2ccccc12)Cc1ccccc1`, the “% Inhibition” value was 2% and the Z score was -0.34. For `CC(C)(C)OC(=O)c1cccc(CNc2nccnc2C#N)c1`, the “% Inhibition” value was 1% and the Z score was -0.2. `O=C(CC1CC1)N(Cc1ccncc1)C1CC1` was tested, and the “% Inhibition” value was -2% and the Z score was 0.34. `C[C@]1(C(N)=O)CCN(C(=O)c2ccc(Nc3nccs3)cc2F)C1` was tested, and the “% Inhibition” value was 7% and the Z score was -1.18. In the case of `COCCNC(=O)CN1CN(c2ccccc2)C2(CCN(C(=O)c3ccc(OC)cc3OC)CC2)C1=O`, the “% Inhibition” value is reported as -9% and the Z score is reported as 1.59. In the case of `COc1ccccc1CNC(=O)[C@]1(C)Cn2nc(-c3ccccc3)cc2C(=O)N1Cc1ccccc1`, the “% Inhibition” value is reported as 6% and the Z score is reported as -1.02. `Cc1ccc(C(=O)NC[C@H]2CCOC2)nn1` was tested, and the “% Inhibition” value was 4% and the Z score was -0.57. For `COc1ccc(CCn2c(-c3c(OC)ccc4ccccc34)nc3cc(Cl)ccc3c2=O)cc1`, the “% Inhibition” value was 10% and the Z score was -1.1. For `O=C1[C@H]2CCCC2=NN1c1ccc(Cl)cc1Cl`, the “% Inhibition” value was -4% and the Z score was 0.83. For `Cc1cnc(CCNC(=O)CC2CCCC2)n1C1CCCCCC1`, the “% Inhibition” value was -11% and the Z score was 1.62. For `CCN(C(=O)c1ccc[nH]1)[C@@H](C)c1cc2ccccc2o1`, the “% Inhibition” value was -8% and the Z score was 0.8. With `O=C(N[C@@H]1CC[C@H]2CCOc3ccccc3C(=O)N3CCN(C4CCOCC4)C[C@H]3C(=O)NC[C@H]1O2)C1CCOCC1` the “% Inhibition” value was -7% and the Z score was 1.06. In the case of `CCOC1CC(N(C)C(=O)c2ccnc(C)n2)C1(CC)CC` (centres undefined), the “% Inhibition” value is reported as 0% and the Z score is reported as 0.06. In the case of `COc1ccc(OC)c(CNC(=O)c2ccccc2NC(=O)c2nsc3ccccc23)c1`, the “% Inhibition” value is reported as -11% and the Z score is reported as 1.91. With `Cc1c(Br)c(-c2nnc(Cc3cccc(Cl)c3)o2)nn1C` the “% Inhibition” value was -1% and the Z score was 0.15. For `CCN1CCN(C(=O)C[C@H]2c3ncccc3C(=O)N2c2cccc(C)c2)CC1`, the “% Inhibition” value was -13% and the Z score was 2.36. `Cc1ccc(C(=O)N2CCC[C@H](n3cc(-c4nc(C(C)C)no4)nn3)C2)cc1` was tested, and the “% Inhibition” value was 0% and the Z score was 0.05. For `CN(CC(=O)Nc1sc2c(c1C#N)CCCCC2)Cc1cc[nH]n1`, the “% Inhibition” value was -14% and the Z score was 2.37. `CC(=O)c1sc(NC(=O)Cc2c(C)nn(C)c2C)nc1-c1ccccc1` was tested, and the “% Inhibition” value was -1% and the Z score was 0.16. In the case of `Cc1ccc(C)n1-c1ccc(Cl)c(C(=O)NCc2ccccn2)c1`, the “% Inhibition” value is reported as -9% and the Z score is reported as 1.19. For `O=C(c1ccncc1)N1CCC(F)(F)[C@@H](COCc2ccccc2)C1`, the “% Inhibition” value was -4% and the Z score was 0.66. `CC(C)N1C[C@@H]2C[C@H]1C(=O)NC[C@H]1O[C@H](CCOc3ccccc3C(=O)N2)CC[C@H]1NS(C)(=O)=O` was tested, and the “% Inhibition” value was 21% and the Z score was -2.49. `COc1ccc(N(C)CCNS(C)(=O)=O)cc1` was tested, and the “% Inhibition” value was -5% and the Z score was 0.65. For `COc1ccc(N/N=C2/Nc3ccc(C)cc3C2=O)cc1`, the “% Inhibition” value was -8% and the Z score was 1.13. For `Cc1noc2nc(C3CC3)cc(C(=O)N3CCO[C@@H](CC(=O)O)C3)c12`, the “% Inhibition” value was 0% and the Z score was -0.05. For `O=S(=O)(Nc1nc2ccccc2nc1N1CCCCCC1)c1cc(Cl)ccc1Cl`, the “% Inhibition” value was -2% and the Z score was 0.31.
